Among all 310,000 compounds or so, about 14,000 (4.5%) showed an effect of 50% or more. The effect is printed as a negative number. The list shows a part of the results.
Biological target: human ether-à-go-go-related gene (hERG) potassium channel (human, UniProt Q12809)
Experiment: primary screen, population patch clamp on CHO cells stably expressing hERG
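Further: peak tail current of the secondary pulse compared with the same well before compound.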

Sequence of human ether-à-go-go-related gene (hERG) potassium channel (Q12809 whole entry, looked up): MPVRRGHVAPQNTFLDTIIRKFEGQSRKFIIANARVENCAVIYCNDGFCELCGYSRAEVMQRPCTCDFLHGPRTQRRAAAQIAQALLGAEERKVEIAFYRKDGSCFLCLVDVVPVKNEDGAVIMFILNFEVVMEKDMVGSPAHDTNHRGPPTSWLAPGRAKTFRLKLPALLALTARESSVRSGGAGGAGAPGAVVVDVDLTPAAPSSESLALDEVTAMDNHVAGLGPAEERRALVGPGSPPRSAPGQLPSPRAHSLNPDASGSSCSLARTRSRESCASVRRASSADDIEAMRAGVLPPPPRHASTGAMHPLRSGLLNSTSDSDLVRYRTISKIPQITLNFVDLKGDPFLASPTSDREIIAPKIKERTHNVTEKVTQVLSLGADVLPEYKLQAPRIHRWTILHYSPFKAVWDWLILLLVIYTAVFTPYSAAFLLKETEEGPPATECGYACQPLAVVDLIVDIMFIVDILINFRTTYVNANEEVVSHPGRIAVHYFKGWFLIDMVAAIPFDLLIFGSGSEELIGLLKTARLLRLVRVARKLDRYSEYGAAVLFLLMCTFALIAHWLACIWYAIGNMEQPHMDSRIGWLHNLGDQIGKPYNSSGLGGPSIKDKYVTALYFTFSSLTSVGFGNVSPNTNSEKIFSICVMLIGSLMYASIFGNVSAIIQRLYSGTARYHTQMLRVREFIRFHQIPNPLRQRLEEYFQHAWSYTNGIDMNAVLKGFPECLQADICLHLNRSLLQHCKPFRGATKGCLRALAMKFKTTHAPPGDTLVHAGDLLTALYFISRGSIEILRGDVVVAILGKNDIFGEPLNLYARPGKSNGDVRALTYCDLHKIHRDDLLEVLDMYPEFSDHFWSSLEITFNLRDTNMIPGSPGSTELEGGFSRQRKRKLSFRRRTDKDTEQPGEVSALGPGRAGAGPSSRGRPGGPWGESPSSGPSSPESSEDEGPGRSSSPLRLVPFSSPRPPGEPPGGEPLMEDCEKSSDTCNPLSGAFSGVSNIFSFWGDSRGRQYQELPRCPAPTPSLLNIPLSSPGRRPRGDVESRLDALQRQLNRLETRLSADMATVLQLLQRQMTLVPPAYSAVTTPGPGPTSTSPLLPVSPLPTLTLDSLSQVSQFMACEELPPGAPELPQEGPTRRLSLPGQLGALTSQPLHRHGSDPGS

| Structure (SMILES) | hERG current change (%, negative = inhibition) at 10uM |
| --- | --- |
| COc1ccc(N2C(=O)CC(n3c(CCCCO)nc4ccccc43)C2=O)cc1 (stereo not drawn) | 18.1% |
| Cc1ccc(OCCn2c(=O)cnc3ccccc32)cc1 | -9.95% |
| O=C(c1ccccc1)c1cn(CC(=O)N2CCCc3ccccc32)c2ccccc12 | -1.4% |
| Clc1cccc(C2Nc3cccc4cccc(c34)N2)c1Cl | 16.2% |
| COCCN(C(=S)Nc1ccc(C)cc1)C(C)c1ccco1 (stereo not drawn) | 0.373% |
| Cc1ccc(C(=O)c2ccccc2C(=O)OCC(=O)Nc2cccc([N+](=O)[O-])c2)cc1 | -20% |
| O=C1C=C(/C=C/c2ccccc2)C[C@@H](c2ccc(F)cc2)C1 | -59.7% |
| CCOc1ccc(Cc2nnc(SCC(=O)c3ccc(OC)cc3)o2)cc1 | 8.18% |
| O=C(c1cccnc1)N1CCN(S(=O)(=O)c2ccc(F)cc2)CC1 | 4.27% |
| Cc1ccc(-c2nc3ccccc3n2C)o1 | 3.68% |
| NC1=NN=C(N2N=C(c3ccc(Br)cc3)CC2(O)C(F)(F)F)n2ncnc2C1 (stereo not drawn) | 0.0237% |
| Cc1cc(F)ccc1NC(=O)Cn1c(C)csc1=O | 17.1% |
| CC(C)(C)NC(=O)CSc1n[nH]c(=O)n1-c1ccccc1 | 8.52% |
| CC(C)(C)C(=O)COC(=O)c1ccccc1O | 8.68% |
| Fc1ccc(NC(=S)Nc2ccc(Br)cc2)cc1 | 5.81% |
| Cc1sc2nc(CN3CCCC3)nc(Cl)c2c1C | -4.03% |
| O=C(COC(=O)c1ccc[nH]c1=O)NC1CCCc2ccccc21 (stereo not drawn) | 13.9% |
| COc1ccc(N(CC(O)Cn2nnc3ccccc32)S(=O)(=O)c2ccc(C)cc2)cc1 (stereo not drawn) | -64.6% |
| Cc1ccc2c(c1)C1CN(C)CCC1N2C(=O)Nc1cccc(C(F)(F)F)c1 (stereo not drawn) | -52.4% |
| CCOC(=O)c1oc2ccccc2c1CN1CCN(c2ccccc2)CC1.Cl | -26.6% |
| Cc1ccn(CCC(=O)O)n1 | 26.6% |
| CCOC(=O)c1nnc(-c2ccccc2)nc1N1CC(C)OC(C)C1 (stereo not drawn) | 5.24% |
| Clc1ccc(C2=Nn3c(nnc3-c3cc(-c4ccccc4)n[nH]3)SC2)cc1 | -8.18% |

| Structure (SMILES) | hERG current change (%, negative = inhibition) at 10uM |
| --- | --- |
| O=C(C(Cl)Cl)N1CCN(c2ccccn2)CC1 | 1.19% |
| CCOCCn1c(CC)nc2ccccc21 | 16.9% |
| O=C(Nc1cccc(N2C(=O)C=CC2=O)c1)c1cccs1 | 10.3% |
| Cc1cc(C)c2c(c1)cc(C)c1nnc(SCC(=O)Nc3ccccc3N3CCOCC3)n12 | -29.5% |
| O=c1[nH]c(CN2CCOCC2)nc2cc(Cl)ccc12 | -10.4% |
| COc1cccc(N/C(=N/C(=S)Nc2ccc(C)cc2C)Nc2nc(C)cc(C)n2)c1 | 0.704% |
| Cc1cc(Cl)ccc1OCCCC(=O)NCc1ccccn1 | -15.2% |
| Cc1ccc(S(=O)(=O)CCC(=O)Nc2nnc(-c3ccc(F)cc3)o2)cc1 | 0.603% |
| FC(F)(F)c1ccccc1-n1ccnc1 | 13.1% |
| NC(=O)CC(NC(=O)Cc1ccc(Cl)cc1)c1ccc(NC2CC3CCC2C3)c([N+](=O)[O-])c1 (stereo not drawn) | -3.01% |
| COc1ccc(C(C)=O)cc1COc1nc(C)nc2ccccc12 | 20.3% |
| COc1ccc(S(=O)(=O)N2CCC(C(=O)NC3CCCCC3)CC2)cc1OC | -0.0397% |
| Cc1cc(C)c(NC(=O)Cn2nnc(C(=O)Nc3ccc(F)cc3F)c2N)c(C)c1 | 8.74% |
| CCOc1ccccc1OCCCC(=O)N1CCN(S(=O)(=O)c2ccc(Cl)cc2)CC1 | -29% |
| O=C(CSc1ccccc1)Nc1ccc(N2CCN(c3ccccc3)CC2)c(F)c1 | 10.9% |
| O=C(COC(=O)/C=C/c1cccs1)Nc1cccc(S(=O)(=O)N2CCOCC2)c1 | -40.8% |
| CC(=O)c1cccc(N(C(=O)CNC(=O)c2ccco2)C(C(=O)NCC2CCCO2)c2ccccc2)c1 (stereo not drawn) | 20.1% |
| O=c1c2c([nH]c3ccccc13)C(=C1CCCC1)CC2 | 4.72% |
| CN1CCN(NC(=O)/C=C/c2ccc(C(C)(C)C)cc2)CC1 | -23% |
| COC(=O)c1ccc(OCc2nc(N)nc(N3CCOCC3)n2)cc1 | 1.11% |
| CN(CCCC(=O)NCc1ccco1)S(=O)(=O)c1ccccc1 | -5.89% |
| CN(CCO)c1nc(N)c2c(N)nc3c(c2c1C#N)CC(=O)N3C1CCCC1 | -63.5% |
| O=C(CSc1nnc(NC(=O)C2CC2)s1)Nc1ccccc1 | 10.5% |

| Structure (SMILES) | hERG current change (%, negative = inhibition) at 10uM |
| --- | --- |
| COc1ccc(CCNC(=S)N2CCC(C(N)=O)CC2)cc1 | 3.36% |
| Cc1ccc(NC(=O)c2c(F)cccc2Cl)cc1NS(C)(=O)=O | 13.3% |
| CCOC(=O)CC1C(=O)NCCN1c1nc2c(C)cccn2c(=O)c1/C=C1\SC(=S)N(C(C)CC)C1=O (stereo not drawn) | 4.42% |
| O=C1c2cccc3cccc(c23)C(=O)N1c1ccccc1Cl | 16% |
| O=c1cc[nH]c2c(C(F)(F)F)cccc12 | -0.945% |
| CC1(OC(=O)C2CCCC2)C(=O)C=C2C=C(c3ccsc3)N(CC3CC3)C=C2C1=O (stereo not drawn) | -11.8% |
| COCCN(Cc1ccccc1)C(=S)Nc1ccc(Cl)cc1 | 11.1% |
| C/C(=N\NC(=O)c1nn(C)cc1Br)c1ccc(NC(=O)c2ccncc2)cc1 | 6.84% |
| c1nc(N2CCC3(CC2)OCCO3)c2c3c(sc2n1)CCCC3 | -39% |
| COc1ccc(CCN/C=C2/CC(=O)NC2=O)cc1OC | 8.75% |
| COc1ccccc1C1/C(=C(/O)c2ccccc2)C(=O)C(=O)N1CCO (stereo not drawn) | 1.4% |
| NS(=O)(=O)c1cccc(NS(=O)(=O)c2ccc(/C=C/C(=O)O)cc2)c1 | 23.3% |
| COc1ccc(S(=O)(=O)N(C)CC(=O)N2CCN(c3ccccc3)CC2)cc1 | -30.5% |
| O=C(CCNC(=O)c1ccccc1)OCN1C(=O)c2ccccc2C1=O | -5.38% |
| CCOc1ccc(C2/C(=C(\O)c3ccc4c(c3)OCCO4)C(=O)C(=O)N2CCN2CCOCC2)cc1OC (stereo not drawn) | 6.94% |
| Clc1ccccc1-c1nnc(CNC2CC2)o1 | 15.6% |
| COc1ccc(-c2csc(NC(CO)c3nc4ccccc4n3CCCO)n2)cc1 (stereo not drawn) | -19.3% |
| COc1ccc(C(CNC(=O)c2cccc(S(=O)(=O)Nc3ccc(C)cc3)c2)N2CCOCC2)cc1 (stereo not drawn) | -20.2% |
| CCOc1cc(/C=C2/C(=O)ON=C2C)ccc1OCc1ccccc1 | 15.1% |
| c1ccc2c(c1)ncn2CCn1cnc2ccccc21 | -39.2% |
| CN(Cc1cccc2ccccc12)C(=O)c1cc(COc2c(F)cccc2F)on1 | 24.6% |
| CCNC(=O)N1CCCC(C(=O)c2ccc(C(F)(F)F)cc2)C1 (stereo not drawn) | -23.4% |
| CCOC(=O)c1oc2cccc(OC(C)=O)c2c1C | -3.5% |

| Structure (SMILES) | hERG current change (%, negative = inhibition) at 10uM |
| --- | --- |
| COc1ccccc1CNC(=O)CN1c2cccc3cccc(c23)S1(=O)=O | -3.2% |
| O=C(COC(=O)c1cccs1)NC12CC3CC(CC(C3)C1)C2 | -3.02% |
| Cc1ccc(OP(=O)(NCc2ccccc2)Oc2ccc(C)cc2)cc1 | 3.24% |
| COc1ccc(-c2nc(NC(=O)Cn3cnnn3)sc2C)cc1 | 18.3% |
| COCCCN1CN(Cc2ccco2)CNC1=S | 11.3% |
| Cc1ncc([N+](=O)[O-])n1CC(=O)Nc1ccc(F)c(F)c1 | 15% |
| COC(=O)C1=C(NC(=O)c2ccc(C)cc2)CCS1 | -9.37% |
| CC(C)c1ccc(N2C(=O)CC(=O)NC2=O)cc1 | 12.4% |
| O=C(Nc1cccnc1)c1ccccc1O | -3.29% |
| CN(CC(CC(=O)O)c1ccccc1)S(=O)(=O)c1ccc(Br)cc1 (stereo not drawn) | 6.91% |
| Cc1cc(C(=O)COC(=O)Cn2c(C(F)(F)F)nc3ccccc32)c(C)n1Cc1ccco1 | 11.8% |
| N#Cc1ccccc1NC(=O)CSc1ccc([N+](=O)[O-])cn1 | 13.1% |
| CC(C(=O)OCC(=O)N(C)C1(C#N)CCCCC1)N1C(=O)c2ccccc2C1=O (stereo not drawn) | -21.1% |
| CCn1c(C)c(C2=CCN(S(=O)(=O)c3ccc(C)cc3)CC2)c2ccccc21 | 0.962% |
| O=S(=O)(Nc1ncccn1)c1ccc(Cl)cc1 | 18.1% |
| CC1=CC(C)(C)Nc2ccc(OC(=O)c3cccnc3)cc21 | -5.62% |
| COc1ccc2cc(C(=O)Nc3ccc(O)cc3)sc(=O)c2c1OC | 6.47% |
| O=C(COc1ncnc2c(Cl)cc(Cl)cc12)NC1CCCCCC1 | 9.78% |
| COc1ccc(CCNS(=O)(=O)c2c(C)nc3scc(C)n3c2=O)cc1OC | 9.68% |
| COc1ccc(C(C)=O)cc1CSC(=N)N.Cl | 9.4% |
| COc1ccc(CC(=O)Nc2c(C(N)=O)oc3ccccc23)cc1 | 20.9% |
